We go through eleven compounds from the antibiotic and cytotoxicity screens of Wong et al. (2023).

The list shows a part of the results.

For the experiment, the system named is HepG2. As to the kind of experiment: cytotoxicity call (relative viability < 0.9). To be noted: 10 µM.
For the compound `CC(C)CC#Cc1cnc2c(c1)C(=O)N([C@H](C)CO)C[C@H](C)[C@@H](CN(C)C(=O)c1ccc3c(c1)OCO3)O2`, the cytotoxicity call was “inactive”.
With `CN1CCN(C(=O)C[C@@H]2CC[C@H](NC(=O)c3ccc4c(c3)OCO4)[C@H](CO)O2)CC1` the entry was “inactive”; with `C[C@@H]1CN([C@H](C)CO)C(=O)c2cc(NC(=O)Cn3cnnn3)ccc2O[C@@H]1CN(C)Cc1ccc(C(=O)O)cc1`, “inactive”; with `C[C@@H]1CCCCO[C@H](CN(C)C(=O)Nc2ccc(F)cc2)[C@@H](C)CN([C@@H](C)CO)C(=O)c2cc(NC(=O)CCC(F)(F)F)ccc2O1`, “inactive”.
With `C[C@@H]1CCCCO[C@@H](CN(C)Cc2ccc(C(=O)O)cc2)[C@@H](C)CN([C@H](C)CO)C(=O)c2cc(NC(=O)Nc3ccc4c(c3)OCO4)ccc2O1` the entry was “inactive”; with `CN(C)CCCNC(=O)C[C@H]1CC[C@@H]2[C@H](COc3ccc(NS(C)(=O)=O)cc3C(=O)N2C)O1`, “inactive”; with `CC(C)NC(=O)Nc1ccc2c(c1)C(=O)N([C@@H](C)CO)C[C@H](C)[C@@H](CN(C)S(=O)(=O)c1ccccc1)O2`, “inactive”.
Turning to `CO[C@@H](CNS(C)(=O)=O)c1ccsc1`, the cytotoxicity call was “inactive”.
As for `CO[C@H]1O[C@H](CO)[C@@H](OC(=O)Nc2ccccc2-c2ccccc2)[C@H](OC(=O)Nc2ccc3c(c2)OCO3)[C@@H]1OC(=O)Nc1ccc2c(c1)OCO2`, the cytotoxicity call was “inactive”.
`C[C@H](CO)N1C[C@H](C)[C@@H](CN(C)S(=O)(=O)c2ccc(F)cc2)Oc2ccc(NS(=O)(=O)c3ccc(F)cc3)cc2C1=O`: the cytotoxicity call is “inactive”.
With `Cc1ccc(S(=O)(=O)Nc2ccc3c(c2)C(=O)N([C@H](C)CO)C[C@@H](C)[C@@H](CN(C)S(=O)(=O)c2ccc(F)cc2)OCCCC[C@@H](C)O3)cc1` the entry was “inactive”.
